PubChem BioAssay (NCI)
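The concentration for full growth arrest is given as TGI.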 Not every entry of the source has a single result; some have several. This list holds those alone. An entry can have further records. Values that stand side by side are repeats across runs, samples, wells, individuals or studies. Brackets tell where a record comes from. A, B and so on number the origins entry by entry.

How the values were obtained:
Assay in all cases: growth of human tumour cells (NCI), 384-well format
[1] = tested on: SNB-75 CNS
[2] = tested on: MALME-3M melanoma
[3] = tested on: DU-145 prostate
[4] = tested on: SN12C renal
[5] = tested on: M14 melanoma
[6] = tested on: SK-MEL-28 melanoma
[7] = tested on: HOP-92 NSCLC
[8] = tested on: OVCAR-5 ovarian
[9] = tested on: NCI-H460 NSCLC
[10] = tested on: T-47D breast
[11] = tested on: SK-OV-3 ovarian

SMILES: Oc1cccc(-c2nc(N3CCOCC3)c3oc4ncccc4c3n2)c1
- TGI [1]: 242 nM [sample A, 1 test] and 11.4 µM [sample B, 1 test]
- TGI [2]: 330 nM [sample A, 1 test] and 10.1 µM [sample B, 1 test]
- TGI [3]: 11.5 µM [sample A, 1 test] and 593 nM [sample B, 1 test]
- TGI [4]: > 100 µM [sample A, 1 test] and 343 nM [sample B, 1 test]
- TGI [5]: > 100 µM [sample A, 1 test] and 2.42 µM [sample B, 1 test]
- TGI [6]: 765 nM [sample A, 1 test] and > 100 µM [sample B, 1 test]
- TGI [7]: 408 nM [sample A, 1 test] and 16.5 µM [sample B, 1 test]
- TGI [8]: > 100 µM [sample A, 1 test] and 6.68 µM [sample B, 1 test]
- TGI [9]: > 100 µM [sample A, 1 test] and 1.18 µM [sample B, 1 test]
- TGI [10]: 484 nM [sample A, 1 test] and 13.1 µM [sample B, 1 test]
- TGI [11]: 395 nM [sample A, 1 test] and 6.73 µM [sample B, 1 test]
